According to patent US20260041683A1, “Compounds with Anti-Acinetobacter Baumannii Activity” (University of Kentucky Research Foundation, priority 2022, published 2026):
Some entries share one result that the patent states for a list of compounds.

How the values were obtained:
[1] = tested on: all 43 strains of A. baumannii (41 CDC strains and 2 ATCC strains); assay: MIC value statistics for all A. baumannii strains; assay type: cell-based, Acinetobacter baumannii; details: of 43 strains; for number of strains with MIC values of <0.125 μg/mL: each compound
Protocol: All bacterial strains listed above were stored at −80° C. All strains were streaked on Mueller-Hinton (MH) plates and allowed to grow at 37° C. overnight. Enough colonies were scraped from the plate and suspended in MH broth with vortexing to reach an attenuance at 600 nm (OD600) of ˜0.5. The resulting culture was diluted 1:1000 and added to the prepared serially doubly diluted compound solutions in 96-well plates. […]. For each row, one well was reserved for sterile control (which consisted of 200 μL of MH medium) and another well was reserved for growth control (which consisted of 100 μL of MH medium seeded with 100 μL of bacterial culture).
Having established that the observed activity is selective to A. baumannii, all synthesized compounds were tested against a panel of antibiotic resistant A. baumannii from the Antimicrobial Resistant (AR) Isolate Bank from the CDC along with strains I and J (Table Si). […]. Based on this statistical analysis, the best compound is 5e followed closely by 3e.

[2] = tested on: mouse macrophages (J774A.1); assay: Mammalian cytotoxicity assay; assay type: cell-based
[3] = tested on: human embryonic kidney cells (HEK-293); assay: Mammalian cytotoxicity assay (resazurin)
[4] = tested on: human hepatoma cells (HepG2); assay: Mammalian cytotoxicity assay (resazurin)

| SMILES | share of all strains with MIC values of <0.125 μg/mL [1] | number of strains with MIC values of <0.125 μg/mL [1] | toxic concentration (no toxicity up to highest concentration used) [2] | toxic concentration (no toxicity up to highest concentration used) [3] | toxic concentration (nontoxic up to) [4] |
| --- | --- | --- | --- | --- | --- |
| O=C(NNc1ccc(Cl)cc1)c1ncc(F)cc1F [Compound 7e] | 11-21% | 5-9 strains |  |  |  |
| O=C(NNc1ccc(Cl)cc1)c1ccccn1 [Compound 2e] | 11-21% | 5-9 strains |  |  |  |
| O=C(NNc1ccc(Cl)cc1)c1ccc2ccccc2n1 [Compound 12e] | 11-21% | 5-9 strains |  |  |  |
| O=C(NNc1ccc(Cl)cc1)c1ccc(F)cn1 [Compound 3e] | 30-46% | 13-20 strains |  |  |  |
| O=C(NNc1ccc(Cl)cc1)c1ccccc1 [Compound 10e] | 30-46% | 13-20 strains |  |  |  |
| O=C(NNc1cccc(F)c1)c1ccccc1 [Compound 10a] | 11-21% | 5-9 strains |  |  |  |
| O=C(NNc1ccc(Cl)cc1)c1ccc(F)cc1F [Compound 1e] | 11-21% | 5-9 strains |  |  |  |
| CCC(=O)NNc1ccc(Cl)cc1 [Compound 16e] | 30-46% | 13-20 strains |  |  |  |
| O=C(NNc1ccc(Cl)cc1)c1nc(F)ccc1F [Compound 8e] | 11-21% | 5-9 strains |  |  |  |
| O=C(NNc1ccc(Cl)cc1)c1cccc(F)n1 [Compound 5e] | 30-46% | 13-20 strains |  |  |  |
| O=C(NNc1cccc(Cl)c1)c1ccccn1 [Compound 2b] |  |  | > 31.3 µg/mL | > 31.3 µg/mL | > 31.3 µg/mL |
| O=C(NNc1cccc(F)c1)c1cnccn1 [Compound 9a] |  |  | > 31.3 µg/mL | > 31.3 µg/mL |  |
| O=C(NNc1ccc(Cl)cc1)c1ccco1 [Compound 15e] | 30-46% | 13-20 strains |  |  |  |
| O=C(NNc1cccc(F)c1)c1ccccn1 [Compound 2a] |  |  | > 31.3 µg/mL | > 31.3 µg/mL | > 31.3 µg/mL |
| C=CC(=O)NNc1ccc(Cl)cc1 [Compound 17e] | 11-21% | 5-9 strains |  |  |  |
| O=C(NNc1cccc(F)c1)c1ccc(F)cn1 [Compound 3a] | 11-21% | 5-9 strains |  |  |  |
